# “And” between values parts separate entries of the source, which are not always exact repeats. Equal entries are not always repeated. The inconclusive results got no clear call from the source; some entries with a clear call stand among them for comparison. Potencies of inconclusive entries are doubtful fits and often do not repeat. The source made the active and inactive calls. The call rests on the fitted dose curve; in most records, active means well fitted inhibition curve with a large enough effect; inconclusive means small, poorly fitted or top-dose-only effect; inactive means flat fitted curve, though single readings scatter.
# Test system: UISO
# Experiment: qHTS assay to identify novel small-molecules to repurpose for Merkel cell carcinoma treatment (AID 1296009); further: nearly all actives have a fitted effect of over 60% in size
# Details: MCC and control cell lines, CellTiter-Glo viability, 72 h; series mostly up to 46 µM
# Outline: (§1)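 Cells were treated for 72 hr at 37 degree celsius with compounds in 8- or 11-point dose response. Viability was read by CellTiter-Glo luminescence, normalized to no-cell (cytotoxicity) and DMSO controls.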
# Potency means the concentration at half of the fitted maximal effect; tags describe the fitted curve by direction and shape.
row,Structure (SMILES),Potency
1,S=c1nc[nH]c2nc[nH]c12,"inconclusive: 1.88 µM [inhibitor, full curve] and active: 4.18 µM"
2,COc1cc(C(=O)NC2CCN(C)CC2)ccc1Nc1ncc2c(n1)N(C1CCCC1)CCC(=O)N2C(C)C,"inconclusive: 2.35 µM [inhibitor, full curve]"
3,Nc1nc2[nH]cc(CCc3ccc(C(=O)N[C@@H](CCC(=O)O)C(=O)O)cc3)c2c(=O)[nH]1,"inconclusive: 2.35 µM [inhibitor, full curve]"
4,CN(C)C(=O)C(CCN1CCC(O)(c2ccc(Cl)cc2)CC1)(c1ccccc1)c1ccccc1,"inconclusive: 23.7 µM [inhibitor, partial curve, poor fit]"
5,COc1cc(N2CCC(N3CCN(C)CC3)CC2)ccc1Nc1ncnc(Nc2ccccc2S(=O)(=O)C(C)C)n1,"inconclusive: 33.2 µM [inhibitor, single point]"
6,CCCOc1ccc2nc(NC(=O)OC)[nH]c2c1,"inconclusive: 75 nM [inhibitor, full curve] and inconclusive: 33.2 nM [inhibitor, full curve]"
7,CN(C[C@@H]1COCCO1)S(=O)(=O)Nc1ccc2ccc3ncc(-c4cnn(C)c4)cc3c(=O)c2c1,"inconclusive: 3.32 µM [inhibitor, full curve]"
8,CCNc1cc(NC2CCC(O)CC2)nc(Nc2ccc3c(ccn3Cc3ccccc3)c2)n1 (stereo not given),inactive
9,CCOc1ccc(Nc2nc(-c3c(C)nc4ccccn34)cs2)cc1,"inconclusive: 0.0209 µM [inhibitor, full curve]"
10,NC1=N[C@@]2(c3cc(NC(=O)c4ccc(F)cn4)ccc3F)COC[C@@H]2CS1,"inconclusive: 37.2 µM [inhibitor, single point]"
11,Cc1ccc(C(C)(O)c2nc3ccccc3s2)c(C)c1 (stereo not given),"inconclusive: 8.33 µM [inhibitor, partial curve, poor fit]"
12,Cc1cc(C2CCCCC2)n(O)c(=O)c1,active: 2.66 µM and active: 13.2 µM
13,Cc1cccc2c1CC[C@H](CN1CCC(c3c(Cl)cccc3Cl)CC1)C[C@@H]2O,"inconclusive: 23.5 µM [inhibitor, single point]"
14,COc1cc([C@@H]2c3cc4c(cc3[C@H](O)[C@H]3COC(=O)[C@@H]23)OCO4)cc(OC)c1OC,"inconclusive: 0.264 µM [inhibitor, full curve]"
15,CCNC(=O)c1cc2c(-c3cc(OCCN4CCCC4)c(Cl)cc3Cl)nc(N)nc2s1,active: 2.96 µM
16,CCNC(=O)Nc1ccc2ncc(Nc3ccc(C)cc3)nc2n1,"inconclusive: 0.935 µM [inhibitor, full curve]"
17,O=c1[nH]c(=O)n([C@H]2C[C@@H](O)[C@@H](CO)O2)cc1F,"inconclusive: 0.118 µM [inhibitor, full curve]"
18,O=C(NC1CC1)c1cccc(-c2ccc3c(NC(=O)C4CC4)n[nH]c3c2)c1,"inconclusive: 8.33 µM [inhibitor, full curve]"
19,Oc1ccc(-c2ccc(-c3cc(Nc4cccc(CNC5CC5)c4)n[nH]3)cc2)c(O)c1,active: 5.26 µM
20,COc1cc([C@@H]2c3cc4c(cc3[C@H](O)[C@H]3COC(=O)[C@H]23)OCO4)cc(OC)c1OC,"inconclusive: 53.1 nM [inhibitor, full curve] and inconclusive: 4.2 nM [inhibitor, full curve, poor fit]"
21,CN(C)Cc1cccc(N=C(c2ccccc2)c2c(O)[nH]c3cc(C(=O)N(C)C)ccc23)c1,"inconclusive: 29.6 µM [inhibitor, single point]"
22,Cc1cccc(-c2[nH]c(C(C)(C)C)nc2-c2ccc3nccnc3c2)n1,active: 2.96 µM

# Test system: WaGa
# Experiment: as above
# Details: MCC and control cell lines, CellTiter-Glo viability, 72 h; series mostly up to 46 µM
# Outline: as §1
row,Structure (SMILES),Potency
1,S=c1nc[nH]c2nc[nH]c12,active: 1.19 µM and active: 2.96 µM
2,CN(C)C(=O)C(CCN1CCC(O)(c2ccc(Cl)cc2)CC1)(c1ccccc1)c1ccccc1,"inconclusive: 33.5 µM [inhibitor, single point]"
3,CCCOc1ccc2nc(NC(=O)OC)[nH]c2c1,"inconclusive: 66.8 nM [inhibitor, full curve] and inconclusive: 23.5 nM [inhibitor, full curve]"
4,CS(=O)(=O)N1CCN(Cc2cc3nc(-c4cccc5[nH]ncc45)nc(N4CCOCC4)c3s2)CC1,"inconclusive: 0.0935 µM [inhibitor, full curve]"
5,CCOc1ccc(Nc2nc(-c3c(C)nc4ccccn34)cs2)cc1,"inconclusive: 0.0059 µM [inhibitor, full curve]"
6,NC1=N[C@@]2(c3cc(NC(=O)c4ccc(F)cn4)ccc3F)COC[C@@H]2CS1,"inconclusive: 10.5 µM [inhibitor, full curve]"
7,Cc1ccc(C(C)(O)c2nc3ccccc3s2)c(C)c1 (stereo not given),active: 7.43 µM
8,Cc1cc(C2CCCCC2)n(O)c(=O)c1,active: 1.88 µM and active: 11.8 µM
9,Cc1cccc2c1CC[C@H](CN1CCC(c3c(Cl)cccc3Cl)CC1)C[C@@H]2O,inactive
10,Cc1cc(C(=O)N2CCN(c3cccc(Cl)c3)CC2)n(-c2ccccc2)n1,"inconclusive: 2.09 µM [inhibitor, full curve]"
11,COc1cc([C@@H]2c3cc4c(cc3[C@H](O)[C@H]3COC(=O)[C@@H]23)OCO4)cc(OC)c1OC,"inconclusive: 0.235 µM [inhibitor, full curve]"
12,CCNC(=O)Nc1ccc2ncc(Nc3ccc(C)cc3)nc2n1,"inconclusive: 0.469 µM [inhibitor, full curve]"
13,OCCCNc1cc(-c2ccnc(Nc3cccc(Cl)c3)n2)ccn1,"inconclusive: 0.118 µM [inhibitor, full curve, poor fit]"
14,O=c1[nH]c(=O)n([C@H]2C[C@@H](O)[C@@H](CO)O2)cc1F,active: 0.0662 µM
15,O=C(NC1CC1)c1cccc(-c2ccc3c(NC(=O)C4CC4)n[nH]c3c2)c1,"inconclusive: 7.43 µM [inhibitor, full curve]"
16,Cc1cccc(-c2[nH]c(C(C)(C)C)nc2-c2ccc3nccnc3c2)n1,active: 2.64 µM
17,CC(C)n1nc(-c2ccc3oc(N)nc3c2)c2c(N)ncnc21,"inconclusive: 9.35 µM [inhibitor, partial curve]"
18,COc1cc(N2CCC(N3CCN(C)CC3)CC2)ccc1Nc1ncc(Cl)c(Nc2ccccc2S(=O)(=O)C(C)C)n1,"inconclusive: 2.64 µM [inhibitor, full curve, poor fit]"

# — PubChem BioAssay (NCATS)
